# From PubChem BioAssay AID485294 (National Center for Advancing Translational Sciences (NCATS), 2010)
# About 150 (0.041%) of roughly 370,000 compounds were called active. The inconclusive results got no clear call from the source; some entries with a clear call stand among them for comparison. Calls follow the shape of the dose curve; as a rule, active = well fitted inhibition curve with a large enough effect; inconclusive = small, poorly fitted or top-dose-only effect; inactive = flat fitted curve, though single readings scatter. No potency is given beside an inconclusive call; the fits are too rough.
# Target: Beta-lactamase (Escherichia coli (strain K12)) (UniProt P00811)
# UniProt P00811, sequence (P00811 whole entry, looked up): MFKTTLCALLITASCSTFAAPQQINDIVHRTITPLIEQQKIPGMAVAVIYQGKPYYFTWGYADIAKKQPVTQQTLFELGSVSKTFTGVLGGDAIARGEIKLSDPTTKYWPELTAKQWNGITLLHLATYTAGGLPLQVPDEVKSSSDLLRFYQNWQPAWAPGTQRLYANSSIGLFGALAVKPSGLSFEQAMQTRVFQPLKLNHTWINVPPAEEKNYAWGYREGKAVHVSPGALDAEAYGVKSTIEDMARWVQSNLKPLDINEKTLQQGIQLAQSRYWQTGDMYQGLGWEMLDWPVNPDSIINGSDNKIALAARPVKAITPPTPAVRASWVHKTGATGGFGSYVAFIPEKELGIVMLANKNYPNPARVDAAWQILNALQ
# Assay: qHTS Inhibitors of AmpC Beta-Lactamase (assay with detergent); also: nearly all actives have a fitted effect of over 25% in size
# Details: AmpC hydrolysis of nitrocefin, absorbance 480 nm, 0.01% Triton; series mostly up to 114 µM
# Outline: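 AmpC (5.3 nM in the dispensed reagent) in 20 mM phosphate pH 7.0 with 0.01% (detergent screen) or 0.0001% Triton X-100 was preincubated with compounds for 15 min at room temperature. Nitrocefin was then added from an 800 uM solution, and hydrolysis was followed at 480 nm.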
# Potency is read from the fitted curve at half-maximal effect; tags tell the direction and shape of the fitted curve.
row,SMILES,Potency
1,O=C(CSc1nc2sc3c(c2c(=O)n1-c1ccccc1)CCCC3)N/N=C/c1ccccc1C(=O)O,inactive
2,Cc1ccc(Cn2c(C(=O)NCc3ccccc3Cl)cc3sccc32)cc1,inactive
3,CCCc1cc(=O)[nH]c(SCC(=O)N2C(C)CCCC2C)n1 (stereo not given),"inconclusive [inhibitor, full curve, poor fit]"
4,Cn1c(Nn2cnnc2)nc2ccccc21,"inconclusive [inhibitor, partial curve, poor fit]"
5,CCOC(=O)N1CCN(C(=O)c2cn(C)c3ccc(S(=O)(=O)N4CCOCC4)cc3c2=O)CC1,inactive
6,Cc1nc2sccn2c(=O)c1S(=O)(=O)Nc1ccc(N2CCOCC2)c(Cl)c1,inactive
7,Cc1occc1C(=O)NNC(=O)Nc1ccc(Cl)c(Cl)c1,"inconclusive [inhibitor, single point]"
8,CCCc1cc(=O)[nH]c(SCC(=O)NCc2ccc3c(c2)OCO3)n1,inactive
9,CS(=O)(=O)N1N=C(c2ccco2)CC1c1ccco1 (stereo not given),"inconclusive [inhibitor, full curve, poor fit]"
10,CC(C)(c1ccccc1)c1ccc(OCCn2cnc3ccccc3c2=O)cc1,"inconclusive [inhibitor, partial curve, poor fit]"
11,S=c1[nH]nc(-c2cccs2)n1C1CCCCC1,"inconclusive [inhibitor, partial curve]"
12,Cc1nn(-c2ccccc2)c(-c2ccccc2[N+](=O)[O-])c1C(=O)O,inactive
13,O=C(NCCCN1CCCC1)c1ccc(Cn2c(=S)[nH]c3ccc(Br)cc3c2=O)cc1,"inconclusive [inhibitor, single point]"
14,CCCC(C(=O)NCC1CCCO1)N(C(=O)CNS(=O)(=O)c1ccccc1)c1ccc(F)cc1 (stereo not given),"inconclusive [inhibitor, full curve, poor fit]"
15,Cc1nnc(NC(=O)Cc2ccc(OCc3c(C)noc3C)cc2)s1,"inconclusive [inhibitor, full curve]"
16,CCOc1ccc(NC(=O)c2c(NCc3ccc(C)o3)sc3c2CCC(C)C3)cc1 (stereo not given),inactive
17,COc1ccc(NC(=O)C2C3CCC(O3)C2C(=O)O)c(C)c1 (stereo not given),"inconclusive [inhibitor, partial curve, poor fit]"
18,CCn1c(=O)cc(SCC(=O)NCCc2cc(OC)ccc2OC)c2ccccc21,inactive
19,O=C(Nc1cccn2ncnc12)C(F)(F)F,"inconclusive [inhibitor, partial curve]"
20,C=CCN1C(=O)/C(=C2/Sc3ccccc3N2C)SC1=Nc1ccccc1C,"inconclusive [inhibitor, partial curve, poor fit]"
